# Results taken from PubChem BioAssay AID1645887 (National Center for Advancing Translational Sciences (NCATS), 2021).
# Among all 16,000 compounds or so, about 40 (0.2%) were called active. Roughly 1% stayed inconclusive and do not appear here. The call rests on the fitted dose curve; in most records, active means well fitted activation curve with a large enough effect; inconclusive means small, poorly fitted or top-dose-only effect, or another doubt; inactive means no such curve, though single readings can be large or run the other way. Certain results were filed several times, with different values. The other results are left out here. The source may hold further records. Values given together are repeated measurements across runs, samples, wells, individuals or studies.
# Molecular target: Rap guanine nucleotide exchange factor 4 (Homo sapiens) (UniProt Q8WZA2)
# Chain of UniProt Q8WZA2 (Q8WZA2 whole entry, looked up): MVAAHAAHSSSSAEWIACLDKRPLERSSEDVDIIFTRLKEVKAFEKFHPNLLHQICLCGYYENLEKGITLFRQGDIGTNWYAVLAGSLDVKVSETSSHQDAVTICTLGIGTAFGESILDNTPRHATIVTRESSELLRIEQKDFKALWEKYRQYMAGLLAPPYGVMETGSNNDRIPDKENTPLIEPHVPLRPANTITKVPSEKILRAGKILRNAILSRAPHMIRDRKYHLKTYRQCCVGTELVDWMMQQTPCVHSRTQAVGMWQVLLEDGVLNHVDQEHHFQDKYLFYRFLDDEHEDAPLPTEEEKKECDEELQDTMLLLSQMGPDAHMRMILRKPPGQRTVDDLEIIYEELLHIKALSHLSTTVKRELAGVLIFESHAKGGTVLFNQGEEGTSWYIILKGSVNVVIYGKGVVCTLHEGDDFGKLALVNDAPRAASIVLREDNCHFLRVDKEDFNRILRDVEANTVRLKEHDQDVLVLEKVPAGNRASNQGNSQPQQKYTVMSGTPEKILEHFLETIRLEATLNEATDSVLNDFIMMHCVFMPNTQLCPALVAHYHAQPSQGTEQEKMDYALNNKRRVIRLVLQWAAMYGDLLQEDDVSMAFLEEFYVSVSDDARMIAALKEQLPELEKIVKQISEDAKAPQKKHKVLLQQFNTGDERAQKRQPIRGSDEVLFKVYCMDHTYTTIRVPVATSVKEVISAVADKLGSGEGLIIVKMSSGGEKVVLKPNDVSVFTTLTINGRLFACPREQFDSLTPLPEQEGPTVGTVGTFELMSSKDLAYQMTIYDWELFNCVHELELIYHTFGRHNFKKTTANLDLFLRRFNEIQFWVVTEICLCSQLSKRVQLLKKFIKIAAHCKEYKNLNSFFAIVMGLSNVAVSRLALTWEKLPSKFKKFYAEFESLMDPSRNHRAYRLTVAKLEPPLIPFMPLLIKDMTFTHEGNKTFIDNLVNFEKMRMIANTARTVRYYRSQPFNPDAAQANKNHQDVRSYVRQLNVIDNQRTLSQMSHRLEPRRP
# Assay: Validation qHTS for agonist of cAMP-regulated guanine nucleotide exchange factor 4 (EPAC2);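 further: exchange makes BODIPY-GDP fluorescence drop when released from Rap1B; series mostly up to about 150 µM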
# Settings: EPAC2 Rap1B BODIPY-GDP exchange, fluorescence; stronger effect = higher value
# From the text: Principle Investigator: Xiaodong Cheng Ph.D.
# The University of Texas Medical Branch, […], TX
# In multi-cellular eukaryotic organisms, the effects of cAMP are transduced by two ubiquitously-expressed intracellular cAMP receptors, the classic protein kinase A/cAMP-dependent protein kinase (PKA/cAPK) and the more recently discovered exchange protein directly activated by cAMP/cAMP-regulated guanine nucleotide exchange factor (EPAC/cAMP-GEF). Both PKA and EPAC are ubiquitously expressed in all tissues, and an increase in intracellular cAMP levels will lead to the activation of both PKA and EPAC. […]
# This qHTS will be used to screen the Molecular Libraries Small Molecule Repository (MLSMR) as a concentration-titration series using the NCGC unique quantitative screening (qHTS) platform to find activators for EPAC1. […] Activators are identified by monitoring the change in fluorescence signal as the exchanged free BODIPY-GDP has a reduced fluorescence compared to Rap1-bound BODIPY-GDP. […]
# Briefly, three uL of reagents (100 nM EPAC2, 250 nM RAP1B-BODIPY-GDP, 50 uM GDP) were dispensed into a 1536-well Greiner black solid-bottom medium binding assay plate. […] The assay plates were read at 5 minute intervals for 30 minutes in the ViewLux plate reader using 480nm excitation and 540nm emission filters. […]
# On the % scale 0 is the no-effect control and ±100 the full control effect.
row,SMILES,activation
1,N=c1nc(N2CCCCC2)cc(N)n1O,"inactive: -21.1, 13.6, -2.57, -13.2, -6.43% [separate samples]"
2,Cc1[nH]c(=O)c(C#N)cc1-c1ccncc1,"inactive: -35.1, -0.111, -8.04, -15.8% [separate samples]"
